The source holds more than one record for some entries. This is not the full list of results. There may be further records. The records of an entry are repeated measurements across runs, samples, wells, individuals or studies. A date in brackets names the month of the test. Signs of the kind (2×) count equal records among those shown.
Tested on: SK-MEL-2 multi-cell spheroids, viability
Assay: Anticancer human tumor SK-MEL-2 cell line growth inhibition [TAK];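 also: spheroids exposed to drugs for seven days before readout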;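 as to viability, T/C: percent of DMSO vehicle control luminescence so 100% = untreated viability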
Conditions: for viability, T/C: stronger effect = lower value
Description: Combinatorial screen of targeted agents with TAK-243 and ipatasertib in multi-cell type tumor spheroids
A high-throughput screen of multi-cell type tumor spheroids was designed to identify active combinations of targeted small molecules and TAK-243 or ipatasertib. Complex spheroids include a stromal component modeled by human endothelial cells (HUVEC) and fibroblasts modeled by human mesenchymal stem cells (MSCs). The concentration ranges selected for each drug and investigational agent were based upon clinically achievable concentrations if the clinical Cmax of the agent was known.
Compounds. The drugs and investigational agents: TAK-243 (785004), ipatasertib (767898), everolimus (733504), selumetinib (741078), bortezomib (756655), trametinib (758246), ixazomib (758254), vemurafenib (761431), dabrafenib (764134), sapanisertib (764658), alpelisib (765974), and copanlisib (816437), were obtained from the National Cancer Institute (NCI) Developmental Therapeutics Program Chemical Repository. The FDA-approved anticancer drug set is available from the NCI Developmental Therapeutics Program. […] The stock solutions were prepared in dimethyl sulfoxide (DMSO, Sigma-Aldrich, St. Louis, MO, cat. D2650) at 800-fold the tested concentration and stored at -70 degrees C prior to their use. All drugs and investigational agents were tested over a range starting from a high concentration at or near the clinical Cmax and decreasing in half-log increments. If the clinical Cmax for an agent had not been determined, the highest concentration tested was 10 microM.
NCI60 Cell Culture. NCI60 cell lines were obtained from the NCI Developmental Therapeutics Program Tumor Repository. For each lot of cells, the Repository performed Applied Biosystems AmpFLSTR Identifiler testing with PCR amplification to confirm consistency with the published Identifier STR profile for each cell line. Cells were kept in continuous culture for no more than 20 passages. The optimal seeding densities for each of the cell lines at each time point assessed were determined prior to performing the concentration response studies. Briefly, the NCI60 human tumor lines were grown as monolayers in RPMI 1640 medium supplemented with 10% FBS and 2 mmol/L L-glutamine.
An additional 2 lines were from the NCI60 cell line panel including melanomas, MALME-3M and SK-MEL-2. Pooled donor human umbilical vein endothelial cells (HUVEC, Lonza, cat. CC-2519) and human mesenchymal stem cells (hMSC, Lonza, cat. PT-2501) were purchased from Lonza (Walkersville, MD).
PDMR cell lines were grown in complete medium (DC medium): Dulbecco's modified Eagle's medium (DMEM)/F12 supplemented with 5% fetal bovine serum (FBS), 2 mM L-glutamine, 100 U/mL penicillin and 100 µg/ml streptomycin, 0.4 µg/ml hydrocortisone, 10 ng/ml epidermal growth factor (EGF) recombinant human protein, 24 µg/mL adenine, and 0.1 mg/mL primocin. During culture from frozen stock vials, PDMR cells were cultured in the same medium containing 10 µM Y-27632 (see Table 3). The PDCs were cultured in complete DMEM/F12 media without 10 microM Y-27632 dihydrochloride for at least two passages prior to the screen. The pooled donor HUVEC and hMSC were cultured in endothelial cell growth medium 2 (PromoCell, Heidelberg, Germany, cat. C-22011) and mesenchymal stem cell growth medium 2 (PromoCell, cat. C-28009), respectively. For all experiments, HUVEC and hMSC were used at passages </=5.
For the pre-screen, cell seeding densities were determined from a titration spanning the range from 5,000 to 313 cells per well. The mct-spheroids including 60% malignant cells, 25% HUVEC and 15% MSC dispensed as a mixture into U-bottom Ultra-Low Attachment 384-well plates (Corning, NY)
High-throughput Drug Combination Screening.
Prior to their inoculation into 384-well plates, malignant cells, HUVEC, and hMSC were removed from T flasks using TrypLE express (Thermo Fisher Scientific, cat. 12605036) and harvested by centrifugation for 5 min at 233 x g. […]

**Q.** What does the source list for `CC(C)NCC(C(=O)N1CCN(c2ncnc3c2C(C)CC3O)CC1)c1ccc(Cl)cc1` (stereo unspecified)?
**A.** viability, T/C (compound alone 0.3 µM): 118%, 112% [2020-02] and 97.3, 95.1, 99.3, 90.3, 98.2, 96.5, 99.9, 96.2% [2020-03]; viability, T/C (compound alone 0.949 µM): 113%, 118% [2020-02] and 84.7, 78.9, 82.8, 86.5, 81.8 (2×), 81.6, 85% [2020-03]; viability, T/C (compound alone 3 µM): 113%, 109% [2020-02] and 59.2, 58.5, 65.8, 60.1, 65.2, 66.2, 68.5, 69.3% [2020-03]; viability, T/C (compound alone 9.49 µM): 108%, 112% [2020-02] and 49.9, 53.7, 57, 53.4, 55.1, 58.4, 52.9, 56.2% [2020-03]; viability, T/C (compound alone 30 µM): 117%, 114% [2020-02] and 47.3, 46.3, 45.5, 45.3, 46.5, 50.3, 48.4, 49.6% [2020-03]; IC50 (drug combinations, compound alone, run of 03/19/2020): 8.79 µM, 13.5 µM, 18.8 µM, 9.09 µM, 18.6 µM, > 30 µM, 20.4 µM, 27.7 µM

— PubChem BioAssay AID2060344 (Molecular Pharmacology Branch, DTP, NCI, 2025)
